No constants are given. Whether binding was seen depends on the method and setting. Binding seen in cells or lysates may run through a third protein. Some entries that bind do so weakly or less than the wild type. Tags and fused reporters may be left off the sequences shown.

By UniProt entry, the sequences of proteins in these tests, tags left out.
UniProt Q92466: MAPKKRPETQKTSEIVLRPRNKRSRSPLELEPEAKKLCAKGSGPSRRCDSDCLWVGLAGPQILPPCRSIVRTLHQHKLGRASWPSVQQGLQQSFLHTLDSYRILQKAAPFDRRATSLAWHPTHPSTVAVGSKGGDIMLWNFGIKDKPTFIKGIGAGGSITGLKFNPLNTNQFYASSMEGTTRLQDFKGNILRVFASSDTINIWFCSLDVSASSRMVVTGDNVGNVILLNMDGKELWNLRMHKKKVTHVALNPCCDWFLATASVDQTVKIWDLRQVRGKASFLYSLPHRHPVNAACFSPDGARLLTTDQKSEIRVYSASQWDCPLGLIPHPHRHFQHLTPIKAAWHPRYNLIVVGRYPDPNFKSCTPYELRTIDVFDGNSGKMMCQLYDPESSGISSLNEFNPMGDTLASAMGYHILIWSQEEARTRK

Here are results for 2 molecules from article PMC3201922.

This assay deals with DDB2_(1–427)-FLAG (human) (UniProt Q92466). Briefly: co-IP; lysates of doubly transfected HEK293T cells probed with anti-FLAG affinity beads; immunoprecipitates analysed by Western blotting with anti-FLAG and anti-GFP antibodies. A general note: Immunoblotting shows a protein as a band on a membrane.

B1: XPC_(607–831)-GFP (domain or fragment, UniProt Q01831 607-831)
chain: LRPYQSPFMDREKKEDLEFQAKHMDQPLPTAIGLYKNHPLYALKRHLLKYEAIYPETAAILGYCRGEAVYSRDCVHTLHSRDTWLKKARVVRLGEVPYKMVKGFSNRARKARLAEPQLREENDLGLFGYWQTEEYQPPVAVDGKVPRNEFGNVYLFLPSMMPIGCVQLNLPNLHRVARKLDIDCVQAITGFDFHGGYSHPVTDGYIVCEEFKDVLLTAWENEQAV
As to B1, the binding result is on record as “binds”.

B2: XPC_(520–633)-GFP (domain or fragment, UniProt Q01831 520-633)
chain: AEKRSIAGIDQWLEVFCEQEEKWVCVDCVHGVVGQPLTCYKYATKPMTYVVGIDSDGWVRDVTQRYDPVWMTVTRKCRVDAEWWAETLRPYQSPFMDREKKEDLEFQAKHMDQP
Take B2: the binding result is given as “binds”.
